{"source": "PubChem BioAssay AID686978", "about": "(National Center for Advancing Translational Sciences (NCATS), 2013)", "note": "About 64,000 (15%) of roughly 420,000 compounds were called active. Inconclusive means that the source gave no clear call. Such entries were picked first, then a sample of the others. Calls follow the shape of the dose curve; as a rule, active = well fitted inhibition curve with a large enough effect; inconclusive = small, poorly fitted or top-dose-only effect; inactive = flat fitted curve, though single readings scatter. No potency is given beside an inconclusive call; the fits are too rough. % is scaled to controls: 0 for no effect and ±100 for the full control effect; potency is read from the fitted curve at half-maximal effect; tags tell the direction and shape of the fitted curve.", "data": [{"assay": "qHTS for Inhibitors of human tyrosyl-DNA phosphodiesterase 1 (TDP1): qHTS in cells in absence of CPT; also: nearly all actives have a fitted effect of over 55% in size", "conditions": "DT40 Tdp1-/- hTDP1 cells, no CPT, ATP luminescence, 48 h; activity change, negative = growth inhibition: at 46.2 µM (top of the series)", "in_short": "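Growth kinetics read by CellTiter-Glo luminescence after ≥48 hr at 37 °C. Cells: DT40 Tdp1-/- stably carrying human TDP1, 400 per well, compound exposure in the absence of CPT (DMSO vehicle).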", "values": [{"compound": "CCOC(=O)CN(C(=O)CN1CCC(n2nnc3cc(C)ccc32)CC1)c1ccccc1", "Potency": "inconclusive [inhibitor, single point]"}, {"compound": "COC(=O)[C@]12CCCCC=C1N(CCc1ccc(OC)c(OC)c1)C(=O)[C@H](CC(=O)NCc1cccs1)C2", "Potency": "active: 16.4 µM"}, {"compound": "Cc1c(CC(=O)N[C@@H](C)C(=O)O)c(=O)oc2cc3oc4c(c3cc12)CCCC4", "Potency": "inactive"}, {"compound": "CCN1CCN(C(=O)C(Cc2ccccc2)NC(=O)c2ccc(Cl)c(S(=O)(=O)N(C)C)c2)CC1", "note": "(stereo not given)", "Potency": "inconclusive [inhibitor, single point]"}, {"compound": "CCOc1ccc(CCNC(=O)c2cccs2)cc1OCC", "Potency": "inconclusive [inhibitor, single point]"}, {"compound": "C[C@@H]1CN([C@H](C)CO)C(=O)CCCn2nncc2CO[C@H]1CN(C)S(=O)(=O)c1ccc(-n2cccn2)cc1", "Potency": "inactive"}, {"compound": "COc1ccc(OC)c(NC(=O)c2nc(SCc3ccc(F)cc3)ncc2Cl)c1", "Potency": "inactive"}, {"compound": "Cc1ccccc1OCCNc1cc(N2CC(C)NC(C)C2)ccc1[N+](=O)[O-]", "note": "(stereo not given)", "Potency": "inconclusive [inhibitor, single point]"}, {"compound": "CC[C@@H]1Cc2[nH][nH]c(=O)c2[C@H](c2ccc(Cl)cc2)O1", "Potency": "inconclusive [inhibitor, partial curve]"}, {"compound": "O=C(/C=C1\\NC2(CCCC2)Cc2ccccc21)N1CCOCC1", "Potency": "active: 11.6 µM"}, {"compound": "CCc1nc2c(OCCC3CCCCC3)cccn2c1N(C)C(=O)C(C)C", "Potency": "inconclusive [inhibitor, single point]"}, {"compound": "CC(Oc1ccc(Cl)cc1Cl)c1ccn[nH]1", "note": "(stereo not given)", "Potency": "inconclusive [inhibitor, single point]"}, {"compound": "Cc1ccc(-n2ncc3c2CC(C)(C)CC3NC(=O)c2ccccn2)cc1", "note": "(stereo not given)", "activity change, negative = growth inhibition": "inconclusive: -37.9% [inhibitor]"}, {"compound": "O=C(CN1C(=O)NC2(CCOc3ccccc32)C1=O)NCc1ccc(F)cc1", "note": "(stereo not given)", "Potency": "inactive"}, {"compound": "Cc1cccc(C)c1OCC(=O)Nc1nnc(C2CCCO2)s1", "note": "(stereo not given)", "Potency": "inconclusive [inhibitor, partial curve]"}, {"compound": "O=C(CCCN1C(=O)/C(=C/c2cccs2)SC1=S)Nc1ccc(C(=O)O)cc1", "Potency": "inactive"}, {"compound": "O=C(/C=C/c1cn(CC(O)CN2CCc3ccccc32)c2ccccc12)c1ccc(Br)cc1", "note": "(stereo not given)", "Potency": "inconclusive [inhibitor, single point]"}, {"compound": "CN(C)CCNC(=O)C(=O)NCC1OCCN1S(=O)(=O)c1ccc(F)cc1", "note": "(stereo not given)", "Potency": "inconclusive [inhibitor, single point]"}, {"compound": "Cc1ccc(S(=O)(=O)N2CCN(C(=O)/C=C/c3ccco3)CC2)cc1", "Potency": "inactive"}, {"compound": "Cc1ccc(NC(=S)NC(=O)C2CCCC2)c(Br)c1", "Potency": "inconclusive [inhibitor, single point]"}, {"compound": "CS(=O)(=O)N1N=C(c2cccs2)CC1c1ccc(F)cc1", "note": "(stereo not given)", "Potency": "inactive"}, {"compound": "CC(C)(C)n1nnnc1C(c1ccccc1)N1CCN(c2ncc(C(F)(F)F)cc2Cl)CC1", "note": "(stereo not given)", "Potency": "inconclusive [inhibitor, single point]"}, {"compound": "CC(C)(C)C(=O)C(CO)(Oc1ccc(Cl)cc1)n1cncn1", "note": "(stereo not given)", "Potency": "inactive"}, {"compound": "CC(=O)N1CCc2cc(S(=O)(=O)NC(CC(C)C)C(=O)N3CCc4ccccc4C3)ccc21", "note": "(stereo not given)", "Potency": "inconclusive [inhibitor, single point]"}, {"compound": "CSc1cccc(NC(=O)/C=C/c2ccco2)c1", "Potency": "inconclusive [inhibitor, single point]"}, {"compound": "COC(=O)c1ccccc1NC(=O)N(Cc1ccc(C)cc1)Cc1cccn1-c1nnc(N2CCCC2=O)s1", "Potency": "inconclusive [inhibitor, full curve, poor fit]"}, {"compound": "COc1cc(CN2CC(=O)N(c3ccc(C)cc3)C2=S)cc(OC)c1OC", "Potency": "active: 25.9 µM"}, {"compound": "Cc1nnc(SC(C)C(=O)Nc2ccc(S(=O)(=O)N3CCCCC3)cc2)s1", "note": "(stereo not given)", "Potency": "inconclusive [inhibitor, single point]"}, {"compound": "CCOC(=O)C#CC(CCc1ccccc1)OS(N)(=O)=O", "note": "(stereo not given)", "Potency": "inconclusive [inhibitor, single point]"}, {"compound": "COc1ccc(CN2CCC(n3nccc3NC(=O)CCOc3ccccc3)CC2)cc1C", "Potency": "inconclusive [inhibitor, single point]"}, {"compound": "N#Cc1nc(-c2ccco2)oc1NCc1ccco1", "Potency": "inactive"}, {"compound": "Cc1ccc(CNS(=O)(=O)c2c(C(=O)N3CCC(C)CC3)c(C)n(C)c2C)cc1", "Potency": "inactive"}, {"compound": "CC(C)(C)[C@@H]1COC(=O)[C@H](Cc2ccc(F)cc2)CC/C=C\\C[C@@H](CC(=O)NCCO)C(=O)N1", "Potency": "inconclusive [inhibitor, partial curve]"}, {"compound": "COc1ccc(C(=O)c2sc(Nc3ccc(NC(C)=O)cc3)nc2C)cc1", "Potency": "active: 16.4 µM"}, {"compound": "CCOC(=O)C1CCN(S(=O)(=O)c2ccc3c(c2)CC(=O)N3C)CC1", "Potency": "inactive"}, {"compound": "Cc1ccc(NS(=O)(=O)c2ccc(-n3cccn3)cc2)nc1", "Potency": "inactive"}, {"compound": "O=S(=O)(c1cccs1)N1CN(Cc2ccc(Cl)cc2)c2nc3ccccc3nc21", "Potency": "inconclusive [inhibitor, single point]"}, {"compound": "COc1ccc(-c2cc(C(=O)NNC(=O)c3csc(N4CCOCC4)n3)c3ccccc3n2)cc1OC", "Potency": "active: 16.4 µM"}, {"compound": "COC(=O)Cn1c(O)c(N=NC(=O)OC)c2ccccc21", "Potency": "inactive"}, {"compound": "CCC(C)(C)n1nnnc1C(c1ccc(OC)c(OC)c1)N1CCN(c2ccc(OC)cc2)CC1", "note": "(stereo not given)", "Potency": "inconclusive [inhibitor, single point]"}, {"compound": "CCOc1ccccc1CNC(=O)CCNS(=O)(=O)c1ccc2[nH]c(=O)oc2c1", "Potency": "inactive"}, {"compound": "Nc1ncnc2c1ncn2[C@@H]1O[C@H](CNCC#Cc2ccccc2)[C@@H](O)[C@H]1O", "Potency": "inconclusive [inhibitor, single point]"}, {"compound": "Cc1cc(C)n(/N=C/c2ccco2)c(=O)c1C#N", "Potency": "inactive"}, {"compound": "CCOC(=O)c1[nH]c(C)c(CCC(=O)NCc2ccc(OC(C)C)cc2)c1C", "Potency": "inconclusive [inhibitor, single point]"}, {"compound": "CCOC(=O)c1c(-c2cccc([N+](=O)[O-])c2)csc1N", "Potency": "inconclusive [inhibitor, single point]"}]}]}
